{
  "source": "patent US20030108991",
  "proteins": {"B1": {"name": "immobilized keratinase (keratinase-streptavidin fusion protein bound to biotinylated beads) (protein)", "chain": "AQTVPYGIPLIKADKVQAQGFKGANVKVAVLDTGIQASHPDLNVVGGASFVAGEAYNTDGNGHGTHVAGTVAALDNTTGVLGVAPSVSLYAVKVLNSSGSGSYSGIVSGIEWATTNGMDVINMSLGGASGSTAMKQAVDNAYARGVVVVAAAGNSGSSGNTNTIGYPAKYDSVIAVGAVDSNSNRASFSSVGAELEVMAPGAGVYSTYPTNTYATLNGTSMVSPHVAGAAALILSKHPNLSASQVRNRLSSTATYLGSSFYYGKGLINVEAAAQ[about 150 residues not shown]"}},
  "molecular_target": "T1, N-Succinyl-Ala-Ala-Pro-Phe-p-nitroanilide",
  "T1 chain": "AAPF",
  "data": [
    {"protein": "B1", "values": [
      {"measurement": "Km", "value": 760, "unit": "µM"}
    ]}
  ]
}
